Drawing on the antibiotic and cytotoxicity screens of Wong et al. (2023), this text covers growth inhibition call for 12 molecules.

SMILES strings stand for the structures. The list shows a part of the results.

The subject of this experiment is S. aureus RN4220. Briefly: growth inhibition call (relative growth <= 0.2). To be noted: 50 µM.
Regarding `COC(=O)CCCCCCC(=O)N/N=C/[C@@H](O)[C@H](O)[C@H](O)CO`, the growth inhibition call was “inactive”.

On to `CN(C)CCCNC(=O)C[C@H]1CC[C@H]2[C@H](COc3ccc(NC(=O)c4ccccc4F)cc3C(=O)N2C)O1`, for which the growth inhibition call is “inactive”. Turning to `COc1ccccc1OC[C@@H](O)COC(N)=O`, the growth inhibition call is “inactive”. Take `COc1ccc(S(=O)(=O)N(C)C[C@H]2Oc3ccc(NC(=O)C4CC4)cc3C(=O)N([C@H](C)CO)C[C@@H]2C)cc1`: the growth inhibition call was “inactive”. For `C[C@H]1CN([C@@H](C)CO)C(=O)c2cc(NS(=O)(=O)c3ccccc3)ccc2O[C@H]1CN(C)S(=O)(=O)c1cn(C)cn1`, the growth inhibition call is “inactive”. Take `C[C@@H]1CN([C@@H](C)CO)C(=O)c2cccc(NC(=O)CCCCCC(=O)Nc3ccccc3N)c2O[C@H]1CN(C)S(=O)(=O)c1cn(C)cn1`: the growth inhibition call is “inactive”. In the case of `CCN(Cc1cc(C(F)(F)F)ccc1-c1cc(CC(=O)O)ccc1OC)C(=O)NCc1ccccc1`, the growth inhibition call is “inactive”. Consider `C[C@H]1CN([C@@H](C)CO)C(=O)Cc2cc(NS(=O)(=O)c3cn(C)cn3)ccc2O[C@H]1CN(C)Cc1ccccc1`, for which the growth inhibition call is “inactive”. For the molecule `C=CC[C@@H](CC(=O)N[C@@H](CO)Cc1ccccc1)C(=O)N[C@@H](C)COC(=O)[C@H](CC=C)CC(=O)OC(C)(C)C`, the growth inhibition call was “inactive”. Regarding `Cc1n[nH]c(=S)n1N`, the growth inhibition call was “inactive”. Turning to `COc1ccc(C#Cc2cnc3c(c2)C(=O)N([C@@H](C)CO)C[C@@H](C)[C@@H](CN(C)C(=O)CN(C)C)O3)cc1`, the growth inhibition call is “inactive”. With `C[C@@H]1CN([C@H](C)CO)C(=O)Cc2cc(NC(=O)Cn3cnnn3)ccc2O[C@@H]1CN(C)S(C)(=O)=O`, the growth inhibition call was “inactive”.
